Measured values: the supplement of paper PMC3334620
Whole data set: some 33,000 sequences, median “E-score (-0.5 to 0.5)” near -0.035, cut for the highest 2% near 0.34. The list shows a part of the results.

Each sequence was assayed against T1, Mot3 (UniProt P54785) (assay: PBM E-score (8-mer binding enrichment) (E-score (-0.5 to 0.5)); higher = stronger / more preferred TF binding; most listed sequences are background and not binding sites). Conditions: protein concentration: 200 nM; construct: GST-full length.
T1 sequence: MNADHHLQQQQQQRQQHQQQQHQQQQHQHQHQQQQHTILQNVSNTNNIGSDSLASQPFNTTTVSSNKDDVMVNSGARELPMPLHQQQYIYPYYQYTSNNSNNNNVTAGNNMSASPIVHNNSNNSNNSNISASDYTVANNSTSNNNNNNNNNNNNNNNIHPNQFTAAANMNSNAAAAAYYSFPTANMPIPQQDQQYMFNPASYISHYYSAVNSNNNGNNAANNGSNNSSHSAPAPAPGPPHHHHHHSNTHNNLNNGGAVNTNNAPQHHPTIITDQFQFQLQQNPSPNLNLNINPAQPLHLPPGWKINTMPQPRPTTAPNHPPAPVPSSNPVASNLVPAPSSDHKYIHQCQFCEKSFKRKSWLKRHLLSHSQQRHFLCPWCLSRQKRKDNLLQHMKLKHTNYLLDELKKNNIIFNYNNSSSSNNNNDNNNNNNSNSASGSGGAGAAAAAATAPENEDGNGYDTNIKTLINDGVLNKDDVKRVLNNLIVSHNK
Procedure, shortened: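 Full-length yeast transcription factors or their DNA-binding domains, GST-tagged and expressed with PURExpress, were applied at about 100-200 nM to universal all-10-mer Agilent arrays. These arrays had been made double-stranded by primer extension on fresh or once-stripped slides. Detection used fluorescent anti-GST, normalisation used masliner, and E-scores for ungapped eight-base words pooled with reverse complements came from the Universal PBM Analysis Suite.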
For ATAATGTG, the “PBM E-score” value was 0.0722. For AATAGATT, the “PBM E-score” value was 0.119. CACCCTAG was tested, and the “PBM E-score” value was 0.00452. In the case of CGATTAAG, the “PBM E-score” value is reported as 0.108. For ACGACAGC, the “PBM E-score” value was -0.0477. In the case of CGTATAAG, the “PBM E-score” value is reported as -0.0705. For ATCTGACG, the “PBM E-score” value was -0.195. GCGAGCGA was tested, and the “PBM E-score” value was -0.244. With ACCCTCAG the “PBM E-score” value was -0.139. In the case of AATGTGGC, the “PBM E-score” value is reported as -0.147. For AAGATACT, the “PBM E-score” value was -0.0295. ATCGCATG was tested, and the “PBM E-score” value was 0.0898. For ATTAGGAC, the “PBM E-score” value was -0.134. TCTTACAA was tested, and the “PBM E-score” value was 0.128. For GTTAATCA, the “PBM E-score” value was 0.232. In the case of CAACGAAA, the “PBM E-score” value is reported as 0.126. In the case of ACGGGAGG, the “PBM E-score” value is reported as -0.151. With CGGCCCTA the “PBM E-score” value was -0.302. In the case of GCCGCTCA, the “PBM E-score” value is reported as -0.25. GTAAACTA was tested, and the “PBM E-score” value was 0.213. For GCACCAGC, the “PBM E-score” value was -0.112. For CCAAGTTC, the “PBM E-score” value was -0.078. GTGTTCCA was tested, and the “PBM E-score” value was -0.0331. For GAAAACAC, the “PBM E-score” value was 0.304. AGTTAATC was tested, and the “PBM E-score” value was 0.0344. With AGTCAACG the “PBM E-score” value was -0.0454. With ATGGAACG the “PBM E-score” value was 0.0262. With CTTAGTAC the “PBM E-score” value was 0.0025. In the case of AGAGGTGA, the “PBM E-score” value is reported as -0.0527. In the case of ATCCAGAC, the “PBM E-score” value is reported as -0.173. With GCACCAAA the “PBM E-score” value was 0.111. With ACAGTTAA the “PBM E-score” value was -0.0198. For ACGCCCTA, the “PBM E-score” value was -0.132. In the case of AGCCGTGA, the “PBM E-score” value is reported as 0.0247. With AGTTGCGG the “PBM E-score” value was -0.128. With AAATGGAG the “PBM E-score” value was -0.0564. GGCCTTCA was tested, and the “PBM E-score” value was -0.0452. With CACGTATG the “PBM E-score” value was 0.111. CGGAATCA was tested, and the “PBM E-score” value was -0.161. In the case of CTCCCACA, the “PBM E-score” value is reported as -0.101. With GCTTGTCA the “PBM E-score” value was 0.0189. ACACGGGA was tested, and the “PBM E-score” value was 0.29. CAATTTGG was tested, and the “PBM E-score” value was 0.0437. In the case of AACCGACA, the “PBM E-score” value is reported as 0.0529. With CGTACCGC the “PBM E-score” value was -0.194. AACACTTC was tested, and the “PBM E-score” value was 0.0788. With GCCCGGGA the “PBM E-score” value was -0.167. In the case of CCCCGCGC, the “PBM E-score” value is reported as -0.302. CTATGGGC was tested, and the “PBM E-score” value was -0.211. For ATCGGCAC, the “PBM E-score” value was -0.0944. ACCACCCT was tested, and the “PBM E-score” value was -0.208. With TACTCCCA the “PBM E-score” value was 0.179. For CTGGTCAC, the “PBM E-score” value was -0.0793. In the case of CAGGCTAC, the “PBM E-score” value is reported as 0.233. With CGCATATC the “PBM E-score” value was -0.0103. In the case of GCCCCAGA, the “PBM E-score” value is reported as -0.331. With CATGATCG the “PBM E-score” value was 0.0419. With CCACACCC the “PBM E-score” value was -0.133. In the case of AAGTCTAC, the “PBM E-score” value is reported as -0.077. With CCGCACTC the “PBM E-score” value was -0.37. For ATAAATTC, the “PBM E-score” value was 0.112. In the case of AACAAGGT, the “PBM E-score” value is reported as 0.223. In the case of AAGCATAT, the “PBM E-score” value is reported as -0.138. With AACCTTCA the “PBM E-score” value was 0.215. In the case of CAAAGCCC, the “PBM E-score” value is reported as -0.0136. For AGGAGTTG, the “PBM E-score” value was 0.128. For ACGTGGAC, the “PBM E-score” value was 0.0457. With CGGCTAGA the “PBM E-score” value was -0.158. With ACCGGACA the “PBM E-score” value was -0.0317. For AATATACG, the “PBM E-score” value was 0.0747. With CGTGTCGA the “PBM E-score” value was 0.288. For GCAATAAA, the “PBM E-score” value was 0.0136. In the case of AGCCTACC, the “PBM E-score” value is reported as -0.207. For CAGGCAAC, the “PBM E-score” value was 0.489. With CATAACTC the “PBM E-score” value was -0.0466. For ACTTGTGC, the “PBM E-score” value was -0.0402. In the case of CAAAGAGA, the “PBM E-score” value is reported as -0.161. In the case of AAAAGTCA, the “PBM E-score” value is reported as -0.0363. CGCTAAAG was tested, and the “PBM E-score” value was -0.0919. In the case of AAGGTACA, the “PBM E-score” value is reported as 0.394. AAATCCTC was tested, and the “PBM E-score” value was -0.184. For ATAACTCC, the “PBM E-score” value was -0.175. In the case of TCGTTGAA, the “PBM E-score” value is reported as 0.0427. With CTTTACAC the “PBM E-score” value was 0.415. GCTGGCCC was tested, and the “PBM E-score” value was -0.247. In the case of AAGCGTCC, the “PBM E-score” value is reported as -0.142.
